B1: CPEB3 Ribozyme (parent)
chain: UAACAGGGGGCCACAGCAGAAGCGUUCACGUCGCAGCCCCUGUCAGAUUCUGGUGAAUCUGCGAAUUCUGCUGUAUAUCUC

The source gives no read counts; variants with many changes may rest on few reads.

The variants in the series derive from B1. The series can be described thus: self-cleavage, relative activity (ratio to wild type); higher = more cleavage; in vitro, sequencing. A digest of the protocol: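 Relative activity compares each variant's cleaved/total read fraction with that of the unmutated ribozyme. To get these fractions, barcoded CPEB3 ribozyme libraries from rounds of error-prone PCR were transcribed with T7 RNA polymerase for 5 hours at 37°C and then given 15 min of DNase I treatment before EDTA was added. The RNAs were reverse transcribed with template switching and sequenced on Illumina, and DNA sequencing linked barcodes to variants. A minimum of 5 reads applied, and three batches were averaged.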
For the variant UAACAGAGGGCCACAGCAGAAGCGAUCACGUCGCAGCCCCUGUCAGAUUCUGGUGGAUCUGCGAAUUCUGCUGUAUAUCUC [G7A U25A A56G], the self-cleavage stood at 0.12.
In the case of UAACAGAGGGCCACAGCAGAAGCGCUAACGUCGCAGCCCCUGUCAGAUUCCGGUGAAUCUGCGGAUUCUGCUGUAUAUCUC [G7A U25C C27A U51C A64G], the self-cleavage was 0.05.
In the case of UAACAGAGGGCCACAGCAGAAGCGUUCACGUCACAGCCCCUGUCAGAUCCUGGUGAAUCUGCGAAUUCUGCUGUAUAUCUC [G7A G33A U49C], the self-cleavage was found to be 0.05.
Next, UAACAGAGGGCCACAGCAGAAGCGUUCACGUCGCAGCCCCUGUCAGAUUCUGGCGAAUCUGCGGAUCCUGCUGUAUAUCUC [G7A U54C A64G U67C]: 0.11.
With UAACAGAGGGCCACAGCAGAAGCGUUCGCGUCGCAGCCCCCGUCAGAUUCUGGUGAAUCUGCGAAUUCUGCAGUAUAUCUC [G7A A28G U41C U72A], the self-cleavage amounted to 0.06.
In the case of UAACAGAGGGCCACAGCAAAAGCGUUCACGUCGCAGCCCCUGUCAGAUUCUGGUGAAUCUGCGAAUUCUGCUGUAUAUCCC [G7A G19A U80C], the self-cleavage is 0.29.
Consider UAACAGCGGGCCACAGCAGAAGCGUUCUCGUCGCAGCCCCUGUCAGAUUCUGGCGGAUCUGCGAAUUCUGCUGUAUUUCUC [G7C A28U U54C A56G A77U], for which the self-cleavage turned out to be 0.07.
As to UAACAGAGGGCCACAGCAGAAGCGUUCGCGGCGCAGCCCCUGUCAGAUUCUGGUGAAUCUGCGAAUUCUGCUGUAUAUCUC [G7A A28G U31G], the self-cleavage was 0.15.
Turning to UAACAGCGGGCCACAGCAGUAGCGUUCACGUCGCAGCCCCUGUCAGAUUCUGACGAAUCUGCGAAUUCUGCUGUAUAUCUC [G7C A20U G53A U54C], the self-cleavage was found to be 0.19.
Next, UAACAGCGGGCCUCAGCAGAAGCGUUCACGUCGCAGCCCCUGUCAGAUUCUGGAGAGUCUGCGAAUUCUGCAGUAUAUCUC [G7C A13U U54A A57G U72A]: 0.07.
For UAACAGAGGGCCACAGCAGAAGCGGUCACGUCGCAGCCCCUGUCAGAUUCUGGUGAAUCUGCGAUUUCUGCAGUAUAUCUC [G7A U25G A65U U72A], the self-cleavage came out at 0.08.
Next, UAACAGAGGGCCACAGCAGAAGCGCUCACGUCGCAGCCCCUGUCAGAUUCUGUUGAAUCUGCGAAUUCUGCUGUAUUUCUC [G7A U25C G53U A77U]: 0.06; UAACAGAGGGCCACAGUAGAAGCGAUCACGUCGCAGCCCCAGUCGGAUUCUGGUGAAUCUGCGAAUUCUGCUGUAUAUCUC [G7A C17U U25A U41A A45G]: 0.08.
Regarding UAACAGCGGGCCACAGCUGAAGCGUUCACGACGCAGCCCCUGUCAGAUUCUGGUGAAUCUGCGAAUUCUGCUGUAUAUCUC [G7C A18U U31A], the self-cleavage is 0.21.
Turning to UAACAGAGGGCCACAGCAGAAGCGCUCACGUCGCAGCCCCUGUCAGACUCUGGCGAAUCUGCGAAUUCGGCAGUAUAUCUC [G7A U25C U48C U54C U69G U72A], the self-cleavage was determined as 0.16.
Next, UAACAGAGGGCCACAGCAGAAGCACUCACGUCGCAGCCCCUGUCAGAUUCUGCUGAAUCUGCGAAUUCUGCAGUAUAUCUC [G7A G24A U25C G53C U72A]: 0.07; UAACAGCGGGCCACCGCAGGAUCGUUCACGUCGCAGCCCCUGUCAGAUACUGGUGAAUCUGCGAAUUCUGCUGUAUAUCUC [G7C A15C A20G G22U U49A]: 0.45; UAACAGAGGGCCACAGCAGAAGCGUUCACGUCGCAGCCCCUGUCAGAUUCUGGUGAAUCUGCGUAUUCUGCUGUAUGUCUC [G7A A64U A77G]: 0.06.
Take UAACAGAGGGCCACAGCAGAAGCGUUCACGUCGCAGCCCCUGUCAGAUUCUGGUGAAUCUGCGAAUUCAGCUGUAUACCUC [G7A U69A U78C]: the self-cleavage was found to be 0.23.
With UAACAGAGGGCCACAGCAGAAGCGUUCACGCCGCAGCCCCUGUCAGAUUCUGGUGAAUCUGCGAAUUCUACCGUGUAACUC [G7A U31C G70A U72C A75G U78A], the self-cleavage was 0.03.
Regarding UAACAGAGGGCCACAGCAGAAGCGCUCACGUCGCGGCCCCCGUCAGAUUCUGGUGAAUCUGCGAAUUCUGCUGUAUAUCUC [G7A U25C A35G U41C], the self-cleavage was determined as 0.06.
In the case of UAACAGAGGGCCACAGCAGAAGCGCUCACGUCGCAGCCCCUGUCUGAUUCUGGUGAAUCUGCGAAUUCUGCAGUAUAUCUC [G7A U25C A45U U72A], the self-cleavage was 0.06.
UAACAGAAGGCCACAGCAGAAGCGUUCACGUCGUAGCCCCUGUCAGAUUCUGGUGAAUCUGCGAAUUCUGCUGUAUAUCUC [G7A G8A C34U]: the self-cleavage turned out to be 0.07.
UAACAGCGGGCCACGGCAGAAGCGCUCACGUCGCAGCCCUUGUCAGCUUCUGGUGAAUCUGCGAAUUCUGCUGUAUAUCUC [G7C A15G U25C C40U A47C]: the self-cleavage worked out at 0.23.
In the case of UAACAGAGGGCCACAGCAGAAGCGUUCACGUUGCAGCCCCUGUCAGAUUCUGGUGAAUCUGCGAAUUCUGCAGUAUAUCUC [G7A C32U U72A], the self-cleavage stood at 0.12.
Regarding UAACAGCGGGCCACGGCAGAAGCGUUCACGUCGCGGCCCCUGUCAGAUUCUGGUGAUUCUGCGAAUUCUGCUGUAUACCUC [G7C A15G A35G A57U U78C], the self-cleavage amounted to 0.28.
As for UAACAGAGGGCCACAGCAGAAGUGUUCACGUCGCAGCCCCAGUCAGAUUCUGGUGAAUCUGCGAAUUCUGCUGUAUAUCCC [G7A C23U U41A U80C], the self-cleavage was 0.19.
Next, UAACAGAGGGCCACAGCAGAAGCGUUCACGUCGCAGCCCCGGUCAGAUUCUGGUGAAUCUGCGAAUUCCGCUGUAUAUCUC [G7A U41G U69C]: 0.09; UAACAGAGGGCCACAGCAGAAGCGUUCACGUCGCGGUCCCUGUCAGAUUCUGGCGAACCUGCGAAUUCUGCUGUAUAUCUC [G7A A35G C37U U54C U58C]: 0.08; UAACAGCGGGCCACAGCAGAAGCGUUCACGUCGCUGCCCCUGUCAGAUCCUGGUGAAUCUGCGAAUUCUGCUGUAUACCUC [G7C A35U U49C U78C]: 0.06.
Consider UAACAGAGGGCCACAGCAGAAGCGUUCACGUCGCAGCCCCUGUCAGAUUCUGGAGAAUCUGCGGAUUCUGCUGUAUAUCUC [G7A U54A A64G], for which the self-cleavage was determined as 0.19.
Next, UAACAGAGGGCCACAGCAGAAGCGUACACGUCGCAGCCCCUGUCAGACUCUGGUGAAUCUGCGAAUUCUCCUGUAUAUCUC [G7A U26A U48C G70C]: 0.14.
On to UAACAGAGGGCCACAGCAGAAGCGUUCACGUCGCGGCCCCUGUAAGAUUCUGGUGAAUCUGCGAAUUCUGCUGUAUAUCCC [G7A A35G C44A U80C], for which the self-cleavage was found to be 0.07.
On to UAACAGCGGGCCACAGCAGAAGCGUUCACGUCGCAGCCCCUGUCUGAUUCUGGUGUAUCUGCGAAUUCUGCUGUAUACCUC [G7C A45U A56U U78C], for which the self-cleavage stood at 0.19.

These data come from the RNAGym collection of RNA variant scans (doi:10.1093/nar/gkz1192).
